Results from PMC6212790.
The list shows a part of the results. At the low end of the ranking the order means little.

Each sequence was assayed against T1, GST-Rok (full length) (UniProt O34857) (assay: protein binding microarray). Details: Rok is a gene silencer of Bacillus subtilis; high values mean tight binding; most listed sequences are background and not binding sites; double strand, one strand shown.
T1 sequence: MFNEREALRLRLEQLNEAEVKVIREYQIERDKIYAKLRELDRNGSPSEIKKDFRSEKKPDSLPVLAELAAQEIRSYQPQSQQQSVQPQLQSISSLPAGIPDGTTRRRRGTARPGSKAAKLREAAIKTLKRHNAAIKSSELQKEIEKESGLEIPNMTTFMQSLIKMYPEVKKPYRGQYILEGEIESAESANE
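Also: rank score from −0.5 (least bound) to 0.5 (best bound).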

Sequence	binding signal [E-score]
GAGCCATC	-0.0688
TATTCTGA	0.119
ACTCTCGC	-0.085
AAGACTAA	0.108
CGTAGACA	-0.198
AGCCGACG	-0.232
CCGCATTA	0.0272
AGAAATTG	0.0823
TAATATGA	0.221
AGCTCTGA	-0.125
ATTATTAC	0.382
CACACGCC	-0.206
CTAGGGCC	-0.206
TATTGGCA	0.157
GGGACTTA	0.127
AGACTTGG	-0.114
AGCACGTA	-0.0375
CTAGTCAG	0.00365
CAGTCGAC	-0.19
GGGGCAGA	-0.356
CCCTCGGA	-0.253
ACGCCAGT	-0.219

Sequence	binding signal [E-score]
CCGTGCTA	-0.0122
AACTGTGA	0.204
CTTCACAA	0.035
CAAGAGCG	-0.0807
GAAGGTCC	-0.376
AACCTAGG	0.0548
ACGGGAAC	-0.208
ATAAAGAA	-0.0956
GAATTATA	0.326
CCACCGAG	-0.162
TCCGCGCA	-0.115
ACCGAACC	-0.111
AGTCCTCA	0.012
GGACACAA	-0.24
CATGTGCC	0.0241
CGCCACAA	-0.0999
GCTTGAAC	-0.0383
GCCTAGCC	-0.107
ACAGCTTA	-0.00768
CCCCGACC	-0.338
AATTCGGG	0.00611
AGGTGGTC	-0.35

Sequence	binding signal [E-score]
ACCGGTTC	-0.188
ACTCTAAA	-0.0841
CGTGTTAG	-0.029
GTCAAAAC	0.00409
ATTAGCCC	-0.135
GAGGGATA	-0.166
CACCGGTG	-0.261
GATTCTCC	0.234
ATCCCAGG	0.00826
ACCCGATA	0.194
CAGGTATG	0.179
GTATCGTA	0.295
CCAAGGAA	-0.0887
GCAGGATA	-0.0229
ACACCGCC	-0.226
GCCGATAA	0.039
GCAGCCCC	-0.436
CGTCCTGC	-0.293
GGACATCA	-0.293
AATTTGAG	0.0604
CCACATTA	0.125
ACATTCGC	0.0185

Sequence	binding signal [E-score]
AATGACCA	-0.151
AACAGCTC	0.0909
ATCCGGGC	-0.201
CGCGGTAA	0.147
AGGTCGAC	0.1
GTATTAGA	0.22
CGAGACAC	-0.204
CGGTGCCC	-0.314
ACTAAAGC	0.0469
ACTCTTAT	0.0525
CTAATCCC	-0.207
CCGCATGC	-0.0458
CGCAAGAA	-0.0375
CGGGCGAG	-0.29
ATCTGGCG	-0.253
GGCCCTAC	-0.323
CTGCCACC	-0.282
TGCAAAAA	0.0792
CGGAATAG	0.163
GGACTGGA	-0.124
AGCGAGCC	-0.201
CCCTAACC	-0.406

Sequence	binding signal [E-score]
CAGATATG	0.125
TGCAACCA	0.0881
ACCGGTTG	-0.0533
CCTGGGCG	-0.311
ATTAGCTC	0.135
CCACTCCA	-0.194
GACGGGCA	-0.159
ACGGACAG	-0.181
TCGGGTAA	-0.0826
ATTAGTTC	0.172
TGATATAA	0.371
ATGAATTG	0.0516
GCTCCCTA	-0.21
AGAGAGCC	-0.214
CAACGGAG	-0.248
AGAGGCAA	-0.285
AAAGCTGC	0.0771
ATGGTGAG	-0.0135
GGTCCGTA	-0.151
GCAGTAGC	-0.0296
CTGCCATA	-0.0185
